The results in this text go back to the RNAGym collection of RNA variant scans (doi:10.7554/elife.90254).

B1: OR4K15 (parent)
chain: GUUAACGGUCAUAGGCCAUGGAAACUAGGAGCACCAUUUCGCUGCCAGUGAAGAAAUGAACAAAGAAAAUCUGGGCCAGGCAGGCAUCAAAAGAAAUAGUCUUGCGCUCAACCAGAAAGUCUGUAAUCAUUUUAAGGGUA

The source gives no read counts; variants with many changes may rest on few reads.

In the series the parent is B1. Put plainly: self-cleavage, relative activity (ratio to wild type); higher = more cleavage; in vitro, sequencing; the parent is a self-cleaving ribozyme.
Take GUUAACGGUCAUAGGCCAUGGAACCUAGGAGCACCAUUUCGCUGCCAGUGAAGAAAUGAACAAGGAAAAUCUGGGCCAGGCAGGCAUCAAAAGGAAUAGUCUCGCGCUCAACCAGAAAGUCUGUAAUCAUUUUAAGGGUA [A24C A64G A94G U103C]: the self-cleavage came out at 0.75.
The same measure for GUUAACGGUCAUAGGCCAUGGAAGCUUGGAGCACCAUUUCGCUGCCAGUGAAGAAAUGAACAAAGAAAAUCUGGGCCAGGCAGGCAACAAAAGAAAUAGUCUAGCGCUCAACCAGAAAGUCUGUAAUCGUUUUAAGGGUA [A24G A27U U87A U103A A129G]: 0.46.
Next, GUUAACGGUCAUAGGCCAUGGAAGCUAGGGGCACCAUUUCGCUGCCAGUGAAGAAAUGAACAAAGAAAAUCUGGGCCAGGCAGGCAUCAAAAGAAAUAGUCCUGCGCUCAACCUGAAAGUCUGUAAUCAUUUUAAGGGUA [A24G A30G U102C A114U]: 0.09.
Take GUUAACGGUCAUAGGCCAUGGAACCUAGGAGCACCAUUUCGCUGCCAGUGAAGAAAUGAACAAAGAAAAUCUGGGCCAGGCAGGCAUCAAAGGAAAUAGUCUUGCGCCCAACCAGAAAGUCUGUAAUCAUUUUAAGGGUA [A24C A92G U108C]: the self-cleavage was 0.
The same measure for GUUAACGGUCAUAGGCCAUGGAACCUAGGAGCACCAUUUCGCUGCCAGUGAAGAAAUGAACAAAGAAAAUCUGAGCCAGGCAGGCAUCAAAAGAAAUAGUCUUGCGCUCAACCAGAAAGUCUGUGAUCAUUUUAAGGGUA [A24C G74A A125G]: 0.04.
Regarding GUUAACGGUCAUAGGCCAUGGAACCUAGGAGCACCAUUUCGCUGCCAGCGAAGAAAUGAACAAAGAGAAUCUGGGCCGGGCAGGCAUCAAAAGAAAUAGUCUUGCGCUCAACCAGAAAGUCAGUAAUCAUUUUAAGGGUA [A24C U49C A67G A78G U122A], the self-cleavage was determined as 0.19.
The same measure for GUUAACGGUCAUAGGCCAUGGAACCUAGGAGCACCAUUUCGCUGCCAGUGAAGAAAUGAACAAAGAAAAUCUGGGCCUGGCAGGCAUCAAGAGAAAUAGUCUUGCGCUCAACCAGAAAGUCUGUAAUCAUUUUAAGGGUA [A24C A78U A91G]: 0.11.
The same measure for GUUAACGGUCAUAGGCCAUGGAACCUAGGAGCACCAUUUCGCUGCCGGUGGAGAAAUGAACAAAGAAAAUCUGGGCCAGGCAGGCAUCAAAAGAAAUAGUCUUGCGCUCAACCAGAAAGUCUGUAAUCAUUUUAAGGGUA [A24C A47G A51G]: 0.41.
In the case of GUUAACGGUCAUAGGCCAUGGAAGCUAGGGGCACCGUUUCGCUGCCAGUGAAGAAGUGAACAAGGAGAAUCUGGGCCAGGCAGGCAUCAGAAGAAAUAGUCUUGCACCCAACCAGAAAGUCUGUAAUCAUUUUAAGGGUA [A24G A30G A36G A56G A64G A67G A90G G106A U108C], the self-cleavage came out at 0.02.
The same measure for GUUAACGGUCAUAGGCCAUGGAACCUAGGAGCACCAUUUCGCUGCCAGUGAAGAAAUGAACUAAGAAAAUCCGGGCCAGGCAGGCAUCAAAAGAAAUAGUCUUGCGCUCAACCAGAAAGUCUGUAAUCAUUUUAAGGGUA [A24C A62U U72C]: 0.14; for GUUAACGGUCAUAGGCCAUGGAAGCUAGGAGCGCCAUUUCGCUGCCAGUGAAGAAAUGAUCAGAGAAAAUCUGGGCCAGGCAGGCAACAAAAGAAAUAGUCUUGCGCUCAACCAGAAAGUCUGUAAUCAUUUUAAGGGUA [A24G A33G A60U A63G U87A]: 0.65; for GUUAACGGUCAUAGGCCAUGGAACCUAGGAGCACCAUUUCGCUGCCAGUGUAGAAAUGGACAAAGAAAAUCUGGGCCAGGCAGGCAUCAGAAGAAAUAGUCUUGCGCACAACCAGAAAGUCUGUAAUCAUUUUAAGGGUA [A24C A51U A59G A90G U108A]: 0.04.
The same measure for GUUAACGGUCAUAGGCCAUGGAACCUAGGAGCACCAUUUCGCUGCCAGUGAAGAAAUGAACAAAGAAAACCUGGGCCAGGCACGCAUCAAAAGAAAUAGUCUUGCGCUCAACCAGAAAGUCUGUAAUCAUUUUAAGGGUA [A24C U70C G83C]: 0.4; for GUUAACGGUCAUAGGCCAUGGAACCUAGGAGCACCAUUUCGCAGCCAGUGAAGAAAUGAACAAAGAAAGUCUGGGCCAGGUAGGCAUCAGAAGAAAUAGUCUUGCGCUCAACCAGAAAGUCUGUAAUCAUUUUAAGGGUA [A24C U43A A69G C81U A90G]: 0.12.
Next, GUUAACGGUCAUAGGCCAUGGAACCUAGGAGCACCAUUUCGCUGCCAGGGAAGAAAUGAACGAAGAAAAUCUGGGCCAGGCAGGCAUCAAAAGAAAUAGUCUUGCGCCCAACCUGAAAGUCUGUAAUCAUUUUAAGGGUA [A24C U49G A62G U108C A114U]: 0.02; GUUAACGGUCAUAGGCCAUGGAAGCUAGGAGCACCCUUUCGCUGCCAGUGAAGAAAUGAACAAAGAAAAUCUGGGCCAGGCAGGCAUAAAAAGAGAUAGUCUUGCGCUCAACCAGAAAGUCUGUAAUCAUUUUAAGGGUA [A24G A36C C88A A95G]: 1.31; GUUAACGGUCAUAGGCCAUGGAACCUAGGAGCACCAUUUCGCUGCCAGUGAAGAAAUGUACAAAGAAAAUCUGGGCCGGGCAGGCAUCAAAAGAAAUAGUCUUGCGCUCAACCAGAAAGUCUGUAAUCAUUUUAAGGGUA [A24C A59U A78G]: 0.37.
As to GUUAACGGUCAUAGGCCAUGGAAGCUAGGGGCACCAUUUCGCUGCCAGUGAAGAAAUGAACAAAGAAAUUCUGGGCCAGGCAGGCAUCAAAAGGAAUAGUCUUGCGCUCGACCAGAAAGUCUGUAAUCAUUUUAAGGGUA [A24G A30G A69U A94G A110G], the self-cleavage was found to be 0.06.
Consider GUUAACGGUCAUAGGCCAUGGAAGCUAGGAGCACCAUUUCGCUGCCGGUGAAGGAGUGAACAAAGAAAAUCUGAGCCAGGCAGGCAUCAAAAGAAAUAGUCUUGCGCUCAACCAGAAAGUCAGUAAUCAUUUUAAGGGUA [A24G A47G A54G A56G G74A U122A], for which the self-cleavage came out at 0.13.
The same measure for GUUAACGGUCAUAGGCCAUGGAACCUAGGAGCACCACUUCGCUGCCAGUGAAGAAAUGAACAGAGAAAAUCUGGGCCAGGCAGGCAUCAAAAGAAAUAGCCUUGCGCUCAACCAGUAAGUCUGUAAUCAUUUUAAGGGUA [A24C U37C A63G U100C A116U]: 0.71; for GUUAACGGUCAUAGGCCAUGGAACCUAGGAGCACCAUUUCGCUGCCAGUGAAGAGAUGAACAAAGAAAAUCUGGGCCAGGCAGGCAUCAAAAGAAAUAGUCUUGCGCUCAACCUGAAAGUCUGUAAUCAUUUUAAGGGUA [A24C A55G A114U]: 0.04.
